The record followed here is paper PMC5892938.

The other results are listed elsewhere or left out. At the low end of the ranking, values are background and their order means little.

The target in the assay is GST-SBP-SLBP (stem-loop binding protein) (UniProt Q14493). In words: targeted RNA Bind-n-Seq.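 Note: DESeq read counts versus GST-SBP nonspecific binding control pulldown.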 The following applies: RBNS binding buffer: 25 mM Tris pH 7.5, 150 mM KCl, 3 mM MgCl2, 0.1% Tween, 0.5 mg/mL BSA, 1 mM DTT; 27 nM protein, 750 pM RNA pool; temperature not stated; high values mean tight binding.
For the sequence “GGUCACGUCUCAAUCAACUCUAACGAGGGGGGGAAAACCCCUUUACCCUCCAAAUCAACAGCUCGCAGUCAAG”, the binding signal (log2 fold change) was -0.365.

As for “GGUCACGUCUCAAUCAACUCUUUCCCAGGAGUUUUCUCCUGCAUUCUCAACAGCUCGCAGUCAAG”, the binding signal (log2 fold change) is 0.123. Regarding “GGUCACGUCUCAAUCAACUCUACAGAGGGGGGGAAAACCCCUUUACCCUCAAUUUCAACAGCUCGCAGUCAAG”, the binding signal (log2 fold change) is -0.282. The same measure for “GGUCACGUCUCAAUCAACUCUAGUCCAGGAGUUUCCUCCUGUUAAUUCAACAGCUCGCAGUCAAG”: 0.0611; for “GGUCACGUCUCAAUCAACUCCCAAGAGGGGGGGAAAACCCCUUUACCCUCCGCAUCAACAGCUCGCAGUCAAG”: 0.167; for “GGUCACGUCUCAAUCAACUCAAUUCCAGGAGUUUUCUCCUGCAUAGUCAACAGCUCGCAGUCAAG”: 0.0625.

“GGUCACGUCUCAAUCAACUCUAUCUCAGGAGUUUUCUCCUGUUUUGUCAACAGCUCGCAGUCAAG”: the binding signal (log2 fold change) worked out at 0.105. For “GGUCACGUCUCAAUCAACUCUUCCCCAGGAGUUUACUCCUGUUUUCUCAACAGCUCGCAGUCAAG” the value was -0.0387.

For the sequence “GGUCACGUCUCAAUCAACUCUUUUCCCAGGGAAAUCCCUGGCUAUGUCAACAGCUCGCAGUCAAG”, the binding signal (log2 fold change) is -0.0827. “GGUCACGUCUCAAUCAACUCCUAAGAGGGGGGGAAAACCCCUUUACCCUCAUCGUCAACAGCUCGCAGUCAAG”: the binding signal (log2 fold change) is -0.12.

On to “GGUCACGUCUCAAUCAACUCUAUCCCAGGAGUUUACUCCUGUAAUCUCAACAGCUCGCAGUCAAG”, for which the binding signal (log2 fold change) was -0.0349. With “GGUCACGUCUCAAUCAACUCAAUCCCAGGAGUUUGCUCCUGUAUUUUCAACAGCUCGCAGUCAAG”, the binding signal (log2 fold change) is -0.146. For “GGUCACGUCUCAAUCAACUCCUCCGAGGGGGGGAAAACCCCUUUACCCUCAUCUUCAACAGCUCGCAGUCAAG” the value was -0.328; for “GGUCACGUCUCAAUCAACUCUAUCCCAGGAGUUUACUCCUGCAAUUUCAACAGCUCGCAGUCAAG”, -0.0338; for “GGUCACGUCUCAAUCAACUCAACUCCCAGGGAAAGCCCUGGUUUUUUCAACAGCUCGCAGUCAAG”, -0.328.

As to “GGUCACGUCUCAAUCAACUCUUCUCCCAGGGAAAUCCCUGGCAUAUUCAACAGCUCGCAGUCAAG”, the binding signal (log2 fold change) was -0.07. Consider “GGUCACGUCUCAAUCAACUCUUUCUCCAGGGAAAACCCUGGUUAAUUCAACAGCUCGCAGUCAAG”, for which the binding signal (log2 fold change) is -0.246. Regarding “GGUCACGUCUCAAUCAACUCUACUUCCAGGGAAAACCCUGGCAUUCUCAACAGCUCGCAGUCAAG”, the binding signal (log2 fold change) was determined as 0.031.

“GGUCACGUCUCAAUCAACUCAUCGUCAGGAGUUUUCUCCUGUUAUUUCAACAGCUCGCAGUCAAG”: the binding signal (log2 fold change) came to 0.192. “GGUCACGUCUCAAUCAACUCUUCGUCAGGAGUUUUCUCCUGUUAUCUCAACAGCUCGCAGUCAAG”: the binding signal (log2 fold change) was -0.0391.

As for “GGUCACGUCUCAAUCAACUCAGUCCCCAGGGAAACCCCUGGCUUAUUCAACAGCUCGCAGUCAAG”, the binding signal (log2 fold change) stood at 0.249. For “GGUCACGUCUCAAUCAACUCUAUUUCCAGGGAAAGCCCUGGUAUACUCAACAGCUCGCAGUCAAG” the value was 0.091; for “GGUCACGUCUCAAUCAACUCAUUUUCCAGGGAAAGCCCUGGUUUUUUCAACAGCUCGCAGUCAAG”, 0.0173; for “GGUCACGUCUCAAUCAACUCUACUCCAGGAGUUUACUCCUGCAUACUCAACAGCUCGCAGUCAAG”, -0.0679. Take “GGUCACGUCUCAAUCAACUCUUUCCCAGGAGUUUACUCCUGCAUAUUCAACAGCUCGCAGUCAAG”: the binding signal (log2 fold change) is 0.213. For the sequence “GGUCACGUCUCAAUCAACUCAUCGCCAGGAGUUUCCUCCUGCUUAUUCAACAGCUCGCAGUCAAG”, the binding signal (log2 fold change) worked out at 0.0374. As to “GGUCACGUCUCAAUCAACUCUUCCUCCAGGGAAAACCCUGGCUUAUUCAACAGCUCGCAGUCAAG”, the binding signal (log2 fold change) is -0.046.

In the case of “GGUCACGUCUCAAUCAACUCUUCCCCCAGGGAAACCCCUGGUUAUUUCAACAGCUCGCAGUCAAG”, the binding signal (log2 fold change) is -0.103.

In the case of “GGUCACGUCUCAAUCAACUCUACUUCAGGAGUUUACUCCUGCUUAUUCAACAGCUCGCAGUCAAG”, the binding signal (log2 fold change) was 0.126. The same measure for “GGUCACGUCUCAAUCAACUCUAUGGAGGGGGGGAAAACCCCUUUACCCUCAUCCUCAACAGCUCGCAGUCAAG”: -0.0435.

Turning to “GGUCACGUCUCAAUCAACUCUACUUCCAGGGAAAGCCCUGGUUAUUUCAACAGCUCGCAGUCAAG”, the binding signal (log2 fold change) was 0.0781. For “GGUCACGUCUCAAUCAACUCAACUUCCAGGGAAAACCCUGGUUAACUCAACAGCUCGCAGUCAAG”, the binding signal (log2 fold change) is -0.0386. The same measure for “GGUCACGUCUCAAUCAACUCUUUCCCAGGAGUUUCCUCCUGUAUACUCAACAGCUCGCAGUCAAG”: 0.0742; for “GGUCACGUCUCAAUCAACUCAUCAGAGGGGGGGAAAACCCCUUUACCCUCCAAUUCAACAGCUCGCAGUCAAG”: 0.162; for “GGUCACGUCUCAAUCAACUCAUCGUCAGGAGUUUUCUCCUGUAUACUCAACAGCUCGCAGUCAAG”: 0.1. Take “GGUCACGUCUCAAUCAACUCUUCCUCAGGAGUUUCCUCCUGCAAUCUCAACAGCUCGCAGUCAAG”: the binding signal (log2 fold change) worked out at 0.076. The same measure for “GGUCACGUCUCAAUCAACUCAAUUUCCAGGGAAACCCCUGGUAUUUUCAACAGCUCGCAGUCAAG”: 0.0325.
